The results in this text go back to publication PMC6919601, “Identification of Plasmodium dipeptidyl aminopeptidase allosteric inhibitors by high throughput screening” (PLoS ONE, 2019).

The whole screen tested about 110,000 compounds, of which about 230 (0.21%) showed an effect of 50% or more. This is one part of the list.
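Note: 30 min substrate incubation versus DMSO and 10 µM JCP410 controls.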

In the experiment the target is DPAP1 (Plasmodium falciparum, UniProt Q8IIJ9). Nature of the experiment: primary screen, percent inhibition; read by cleavage of a fluorogenic dipeptide substrate; higher = more effect of the substance. Also noted: species or system P. falciparum D10 trophozoite lysates; single well.
DPAP1, sequence (Q8IIJ9 whole entry, looked up): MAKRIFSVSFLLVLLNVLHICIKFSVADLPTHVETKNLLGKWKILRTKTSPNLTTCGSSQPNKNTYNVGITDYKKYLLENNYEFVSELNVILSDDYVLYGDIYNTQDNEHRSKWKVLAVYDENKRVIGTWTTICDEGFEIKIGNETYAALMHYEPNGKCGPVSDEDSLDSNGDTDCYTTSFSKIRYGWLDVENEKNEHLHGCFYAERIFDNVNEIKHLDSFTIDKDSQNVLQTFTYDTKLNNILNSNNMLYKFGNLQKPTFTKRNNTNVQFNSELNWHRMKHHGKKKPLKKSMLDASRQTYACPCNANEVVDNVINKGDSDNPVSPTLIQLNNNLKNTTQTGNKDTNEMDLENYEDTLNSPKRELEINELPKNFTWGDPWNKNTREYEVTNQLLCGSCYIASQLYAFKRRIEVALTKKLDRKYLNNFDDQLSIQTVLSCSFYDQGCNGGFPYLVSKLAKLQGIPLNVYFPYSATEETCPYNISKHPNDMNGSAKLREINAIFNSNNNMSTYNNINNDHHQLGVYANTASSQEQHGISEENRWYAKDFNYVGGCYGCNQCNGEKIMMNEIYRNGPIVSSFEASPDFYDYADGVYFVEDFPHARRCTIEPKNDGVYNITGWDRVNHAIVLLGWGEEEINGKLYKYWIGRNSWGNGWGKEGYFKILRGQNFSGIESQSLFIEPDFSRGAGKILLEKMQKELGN
Consider `O=C(Nc1ccc(Oc2ccccc2)cc1)C(F)(F)F`, for which the “% Inhibition @ 10 uM” value is listed as -1.61%.
As for `COc1ccccc1C(=O)N1CCN(C(=O)c2cc(OC)c(OC)c(OC)c2)CC1`, the “% Inhibition @ 10 uM” value is -2.26%.
With `O=C(CN1C(=O)S/C(=C/c2c[nH]c3ccccc23)C1=O)N1CCCC1`, the “% Inhibition @ 10 uM” value is reported as 1.87%.
As for `Cc1cccc(OCC(=O)Nc2ccc(S(=O)(=O)Nc3cc(C)on3)cc2)c1`, the “% Inhibition @ 10 uM” value is given as -14.4%.
`CCSc1nc2n(n1)C(c1ccccc1C)C1=C(O)CCCC1=N2` (stereo not shown): the “% Inhibition @ 10 uM” value was -3.45%.
`Brc1ccc(CSc2nccn2Cc2ccccc2)cc1`: the “% Inhibition @ 10 uM” value was -0.233%.
Regarding `Cc1cc(C)cc(NC(=O)C23CC4CC(C2)CC(n2cnc(Br)n2)(C4)C3)c1`, the “% Inhibition @ 10 uM” value is listed as 2.43%.
In the case of `Cc1ccccc1S(=O)Cc1ccc(C(=O)NCc2ccc(OC(C)C)cc2)o1` (stereo not shown), the “% Inhibition @ 10 uM” value is on record as -1.57%.
As for `COc1ccc(CC(=O)Nc2sc3c(c2C(N)=O)CCCC3)cc1`, the figure is 2.13%; as for `CCc1ccc(CNCc2c(C(=O)O)c(C)n(Cc3ccccc3F)c2C)cc1`, -7.36%.
Regarding `CCc1ccc(NC(=O)CCCOc2ccccc2C)cc1`, the “% Inhibition @ 10 uM” value was -1.92%.
Under `COc1ccc(-c2onc3ccc4c5ccccc5oc4c23)cc1OC` stands -7.33%; under `CCCOc1ccc(-c2csc3ncn(CCC)c(=O)c23)cc1`, -5.95%; under `Cc1ccc(OCC(=O)Nc2cccc(Cl)c2)cc1C`, -2.99%.
As for `COCC(C)NCc1cc(F)ccc1F` (stereo not shown), the “% Inhibition @ 10 uM” value stood at 1.84%.
For `COCCCNC(=O)Cn1cc(C(=O)C2CC2)c2ccccc21`, the “% Inhibition @ 10 uM” value was 1.62%.
For `COc1ccc(OC)c([C@H]2NCC[C@@]3(O)CCCC[C@H]23)c1`, the “% Inhibition @ 10 uM” value is listed as -3.62%.
Take `COC1CCCCC1NC1CCCCC1` (stereo not shown): the “% Inhibition @ 10 uM” value is -3.35%.
For the compound `COC(=O)C1=CNC=C(C(=O)OC)C1c1cccc(OC)c1OC`, the “% Inhibition @ 10 uM” value was 12%.
Turning to `Cc1ccsc1CCNS(=O)(=O)c1ccc2[nH]c3c(c2c1)CCCC3`, the “% Inhibition @ 10 uM” value is recorded as -6.17%.
As for `O=C(O)CCC(=O)N1CCc2ccccc21`, the figure is 1.33%; as for `CC1=CC2=NC(=O)/C(=C\c3ccc(OCCCOc4ccc(C)cc4)cc3)C(=N)N2O1`, -1.43%.
Take `O=S(=O)(Nc1ccc2c(c1)OCO2)c1ccc(Cl)cc1`: the “% Inhibition @ 10 uM” value was found to be 4.16%.
Regarding `COc1ccc(C=O)cc1Cn1cnc2c(cnn2C)c1=O`, the “% Inhibition @ 10 uM” value was -2.41%.
Regarding `O=C(CC(NCc1ccccc1)C(=O)O)NC1CCCCC1` (stereo not shown), the “% Inhibition @ 10 uM” value came out at 0.426%.
For the compound `CCOC(=O)c1c(S(=O)(=O)NCCC2=CCCCC2)c(C)n(C)c1C`, the “% Inhibition @ 10 uM” value was 2.6%.
In the case of `COc1cc(NC(=O)c2cc(Br)ccc2OC)c(C(=O)O)cc1OC`, the “% Inhibition @ 10 uM” value is reported as -1.6%.
Regarding `Cc1ccc(-n2c(C)cc(C(=O)C(=O)Nc3nnc(-c4cccnc4)s3)c2C)cc1`, the “% Inhibition @ 10 uM” value is listed as 3.92%.
Under `COc1ccc(OC)c(Nc2nc(-c3c(C)nc4ccccn34)cs2)c1` stands -4.82%.
Turning to `CCN(Cc1ccccc1)Cc1ccco1`, the “% Inhibition @ 10 uM” value is -1.78%.
For the compound `CCc1nnc(NS(=O)(=O)c2ccc(NC(=O)c3ccc(OC)cc3)cc2)s1`, the “% Inhibition @ 10 uM” value is on record as -3.93%.
As to `COc1cc2c(cc1OC)C1C(C(=O)NCC3CCCO3)c3ccccc3C(=O)N1CC2` (stereo not shown), the “% Inhibition @ 10 uM” value turned out to be 0.559%.
On to `Cc1ccc(-c2c3c(nc4sc(C(=O)c5ccc(Cl)cc5)c(N)c24)CCCC3)o1`, for which the “% Inhibition @ 10 uM” value is reported as -1.05%.
In the case of `CC1(C)CC2CC(C)(CN2c2nc(-c3ccco3)cc(C(F)(F)F)n2)C1` (stereo not shown), the “% Inhibition @ 10 uM” value is -3.79%.
In the case of `O=C(c1cc2c(Cl)ccc3c2n1CCO3)N1CCC2(CC1)OCCO2`, the “% Inhibition @ 10 uM” value was found to be 0.967%.
With `CCOc1ccc(C(=O)NC(C)c2ccccc2)cc1` (stereo not shown), the “% Inhibition @ 10 uM” value stood at 2.36%.
Under `CCc1nnc(NC(=O)COc2cc(C)c(Cl)c(C)c2)s1` stands 10.6%; under `CN(C)c1ccc(NC(=O)C23CC4CC(C2)CC(n2cnc(Cl)n2)(C4)C3)cc1`, -0.305%.
With `COC(=O)c1cc(S(=O)(=O)NCC2CCN(CCc3cccc(OC)c3)CC2)c[nH]1`, the “% Inhibition @ 10 uM” value amounted to 3.27%.
For `CC(C)CC(C(=O)NCCc1c[nH]c2ccccc12)N1Cc2ccccc2C1=O` (stereo not shown), the “% Inhibition @ 10 uM” value is 0.297%.
For the compound `COc1cccc(N/C(=N/C(=O)c2ccccc2)Nc2nc(C)cc(C)n2)c1`, the “% Inhibition @ 10 uM” value came out at 2.98%.
On to `CN(C)CCN(C)C1CCc2ccccc2C1` (stereo not shown), for which the “% Inhibition @ 10 uM” value is listed as -0.0953%.
On to `Cn1c(=O)[nH]c(=O)c2c1nc(CN1CCOCC1)n2CCc1ccccc1`, for which the “% Inhibition @ 10 uM” value was -2.92%.
Turning to `COc1ccc2[nH]cc(CCN3C(=O)c4ccccc4C3=O)c2c1`, the “% Inhibition @ 10 uM” value worked out at 1.54%.
Turning to `COCCNC(=O)CN(c1cccc(Br)c1)S(=O)(=O)c1ccccc1`, the “% Inhibition @ 10 uM” value is 0.635%.
As for `COc1ccc(C(=O)C2=C(O)C(=O)N(Cc3ccco3)C2c2cccnc2)cc1` (stereo not shown), the “% Inhibition @ 10 uM” value is listed as -8.53%.
As to `CCc1nnc(NS(=O)(=O)c2ccc(NC(=S)NC(=O)/C=C/c3ccccc3)cc2)s1`, the “% Inhibition @ 10 uM” value is on record as -3.16%.
Regarding `CCn1cc(CCC(=O)NCc2ccccc2Cl)c2ccccc21`, the “% Inhibition @ 10 uM” value was -7.02%.
For `CCCC1NCCn2cccc21` (stereo not shown), the “% Inhibition @ 10 uM” value is recorded as 0.716%.
`O=[N+]([O-])c1ccccc1C1=Nc2ccccc2C(c2ccccc2)(c2ccccc2)O1`: the “% Inhibition @ 10 uM” value stood at 2.94%.
For the compound `Cc1ccc2[nH]c(Cc3nn[nH]n3)nc2c1`, the “% Inhibition @ 10 uM” value worked out at 3.01%.
Regarding `O=C1NC(c2ccncc2)Nc2sc3c(c21)CCCC3` (stereo not shown), the “% Inhibition @ 10 uM” value came out at 8.82%.
Under `CCO/C(O)=C1/C(C)=Nc2ncnn2C1c1ccncc1` (stereo not shown) stands 1.63%.
Under `O=C(CC1CCCC1)Nc1noc2ccccc12` stands 5.29%; under `CN1CCN(C(=O)c2cc3nc(-c4ccccc4)cc(C(F)(F)F)n3n2)CC1`, -1.66%.
Consider `N#Cc1c(C(F)(F)F)cc(-c2cccs2)nc1SCC(=O)O`, for which the “% Inhibition @ 10 uM” value was found to be 9.42%.
Turning to `CCOc1ccc(C2CC(=O)N3C(=C2C#N)SCC3(O)c2ccco2)cc1OC` (stereo not shown), the “% Inhibition @ 10 uM” value came to 1.64%.
Turning to `CCN(CC)CCn1c2ccccc2c2nc3ccccc3nc21`, the “% Inhibition @ 10 uM” value was determined as 0.606%.
On to `CCc1ccc(NS(=O)(=O)c2ccc(Cl)cc2)cc1`, for which the “% Inhibition @ 10 uM” value is recorded as 0.247%.
As to `O=C(NCC(O)c1ccccc1)c1ccc(Cl)cc1` (stereo not shown), the “% Inhibition @ 10 uM” value is on record as -3.88%.
Consider `Cc1cc(C)c(C)c(S(=O)(=O)NCCCN2CCOCC2)c1C`, for which the “% Inhibition @ 10 uM” value was 1.28%.
As for `CCOC(=O)c1ccc(S(=O)(=O)N2CCC(N3CCCCC3)CC2)cc1`, the figure is -0.671%; as for `c1ccc(CCCN2CCC(N3CCCCC3)CC2)cc1`, 0.273%.
`O=S(=O)(c1ccccc1)c1nnn2c1nc(N1CCOCC1)c1ccccc12`: the “% Inhibition @ 10 uM” value was -3.08%.
`CC(=O)Nc1ccc(Cl)c(-c2nc3ncccc3o2)c1`: the “% Inhibition @ 10 uM” value was 2.05%.
Take `O=S(=O)(NCCCc1ccccc1)c1cccc2nsnc12`: the “% Inhibition @ 10 uM” value turned out to be 3.05%.
For the compound `Cc1nnc(NC(=O)CSc2nc(O)c3cnn(-c4ccccc4)c3n2)s1`, the “% Inhibition @ 10 uM” value came out at 0.208%.
In the case of `O=C(C1CCN(S(=O)(=O)c2cccc3nsnc23)CC1)N1CCOCC1`, the “% Inhibition @ 10 uM” value was 1.9%.
As for `CCn1c(Sc2ncnc3ccccc23)nc2ccccc21`, the “% Inhibition @ 10 uM” value was -4.91%.
As for `Cc1occc1-c1nnc(O)o1`, the “% Inhibition @ 10 uM” value is given as -6.56%.
On to `Cc1ccc(-n2cnnn2)cc1Cl`, for which the “% Inhibition @ 10 uM” value came out at 1.67%.
On to `CCn1c(C)c(C2N3CC4(C(C)C)CN2CC(C(C)C)(C3)C4=O)c2ccccc21` (stereo not shown), for which the “% Inhibition @ 10 uM” value stood at 2.05%.
As for `O=C(Cn1cnc2c(nnn2Cc2ccccc2F)c1=O)N1CCOCC1`, the “% Inhibition @ 10 uM” value turned out to be 4.41%.
For `CCN1CN(Cc2ccco2)CNC1=S`, the “% Inhibition @ 10 uM” value came out at 1.52%.
Under `COC(=O)C1=C(C)NC(=O)NC1c1c(O)ccc2ccccc12` (stereo not shown) stands -2.66%; under `C=CC(=O)N1C(C)CCCC1C(=O)O` (stereo not shown), -1.47%; under `CC(C)(C)C(=O)Nc1ccccc1C(O)c1ccccc1` (stereo not shown), -2.19%.
With `CC(=O)N1CCc2nc3sc(C(=O)Nc4cccc(C#N)c4)c(N)c3c(C(F)(F)F)c2C1`, the “% Inhibition @ 10 uM” value was found to be 0.235%.
Consider `O=C(NCC1CCCO1)C1c2ccccc2C(=O)N(C2CCCC2)C1c1cccs1` (stereo not shown), for which the “% Inhibition @ 10 uM” value is listed as -4.99%.
Under `O=C(O)CCCCCn1c(SCC(=O)NCC2CCCO2)nc2ccsc2c1=O` (stereo not shown) stands -0.975%; under `O=C(CCNS(=O)(=O)c1cccc2nsnc12)N(CCc1ccccc1)Cc1ccccc1`, -7.43%; under `COc1ccc(C2N=C(N)N=C(N)N2c2ccc(C)cc2)cc1` (stereo not shown), 0.177%.
Take `CC(=O)Nc1ccc(C2=CSC3=NCCN23)cc1`: the “% Inhibition @ 10 uM” value is 3%.
As for `CCC(=O)N1N=C(c2ccccc2)CC1c1ccc(F)cc1` (stereo not shown), the figure is -0.641%.
In the case of `CC1CCCCN1CCNC(=O)c1cnn(-c2ccccc2)c1-n1cccc1` (stereo not shown), the “% Inhibition @ 10 uM” value came to 1.8%.
Under `COc1cc(C=C2C(=O)N(C)C(=O)N(C)C2=O)ccc1OS(=O)(=O)c1ccccc1` stands -1.93%; under `c1ccc(C2CCC(NCc3ccco3)CC2)cc1` (stereo not shown), -3.6%; under `Cn1c(=O)c2nc3ccc(NC(=O)c4ccccc4)cc3nc2n(C)c1=O`, -10.8%.
`Nc1ncc(Br)cc1S(=O)(=O)NCCC(=O)NCc1ccc2c(c1)OCO2`: the “% Inhibition @ 10 uM” value is given as -1.87%.
As to `Nc1nonc1C(=O)NCCNCC#Cc1ccccc1`, the “% Inhibition @ 10 uM” value is reported as 3.27%.
As for `Cc1ccc(C)c(Cn2nnc3c2nc(C)n2c(O)nnc32)c1`, the “% Inhibition @ 10 uM” value is given as 2.29%.
Consider `Cc1ccc(CCNC(=O)C2(NS(=O)(=O)c3cccc4cccnc34)CCCCC2)cc1`, for which the “% Inhibition @ 10 uM” value was -7.99%.
In the case of `CCN(CC)S(=O)(=O)c1ccc(C)c(C(=O)O)c1`, the “% Inhibition @ 10 uM” value was found to be 0.177%.
Regarding `Cc1cccc(NC(=O)c2cccnc2)c1`, the “% Inhibition @ 10 uM” value is 3.58%.
Consider `Cc1[nH]c2ccccc2c1/C=C1\SC(=N)N(c2nonc2N)C1=O`, for which the “% Inhibition @ 10 uM” value is recorded as 0.503%.
Take `CCOCCCNc1nc2c(S(=O)(=O)c3ccc(C(C)C)cc3)nnn2c2ccsc12`: the “% Inhibition @ 10 uM” value is listed as 1.37%.
As for `CN(CC(=O)N1CC=C(c2ccccc2)CC1)S(=O)(=O)c1c[nH]cn1`, the figure is 1.63%.
For the compound `CC(C)CNc1nc2c(c(=O)[nH]c(=O)n2C)n1C(C)C`, the “% Inhibition @ 10 uM” value was -6.71%.
As for `COc1cc(C2NC(=O)N(C)C(C)=C2C(=O)OCc2ccccc2)cc(Cl)c1O` (stereo not shown), the figure is -1.4%.
Under `CCn1c(CNC(=O)c2ccccc2)nc2ccccc21` stands 1.23%.
With `Nc1cc(O)nc2nnc(SCc3nnnn3-c3ccccc3)n12`, the “% Inhibition @ 10 uM” value is -3.23%.
As to `Cc1c(Cl)cccc1NC1=NC(=O)/C(=C2/C(=O)Nc3ccccc32)S1`, the “% Inhibition @ 10 uM” value was -4.21%.
For `COc1ccc(Cn2c(=O)c(C#N)cc3c(=O)n4ccccc4nc32)cc1`, the “% Inhibition @ 10 uM” value is recorded as 1.12%.
